# Screen size: about 3,200 compounds; about 75 (2%) showed an effect of 50% or more. Some of the results follow.
# Tested on: T1, S. aureus MSSA476
# T1 construct: MSSA476
# Parameters: species or system S. aureus MSSA476 (TSB) or V. cholerae SAD30 (LB); 384-well bacterial growth screen at 25 uM, OD600 relative to DMSO control
# Details: relative growth, OD600, TSB; 25 µM; inhibitor
row,SMILES,% of control remaining
1,"CC(Cl)C(=O)NCCc1cccs1 (stereo not shown) [4-D14, 2-chloro-N-[2-(thiophen-2-yl)ethyl]propanamide]",107.099%
2,"CCN1C(=O)CSC1=C(C#N)C(N)=O [8-M09, 2-cyano-2-(3-ethyl-4-oxo-1,3-thiazolidin-2-ylidene)acetamide]",100.581%
3,"COc1ccc2ccccc2c1-c1cc(CNC(=O)C(C)Cl)on1 (stereo not shown) [7-E08, 2-chloro-N-{[3-(2-methoxynaphthalen-1-yl)-1,2-oxazol-5-yl]methyl}propanamide]",104.867%
4,"CC(Cl)C(=O)NCCc1ccccc1 (stereo not shown) [4-K14, 2-chloro-N-(2-phenylethyl)propanamide]",112.816%
5,"C=CC(=O)N1CCN(c2nc3ccccc3o2)CC1 [1-K05, 1-[4-(1,3-benzoxazol-2-yl)piperazin-1-yl]prop-2-en-1-one]",107.956%
6,"C=CC(=O)N1CCC(C(=O)N(CC)Cc2occc2C)CC1 [2-L08, N-ethyl-N-[(3-methylfuran-2-yl)methyl]-1-(prop-2-enoyl)piperidine-4-carboxamide]",126.719%
7,"C=CC(=O)NCCn1nnc2ccccc21 [2-N11, N-[2-(1H-1,2,3-benzotriazol-1-yl)ethyl]prop-2-enamide]",114.186%
8,"Cc1ccc(C=C(C#N)C(=O)Nc2nccs2)s1 [8-P13, 2-cyano-3-(5-methylthiophen-2-yl)-N-(1,3-thiazol-2-yl)prop-2-enamide]",93.61%
9,"O=C(CCl)NCCc1cccc2c1Oc1ccccc1O2 [7-J18, 2-chloro-N-[2-(oxanthren-1-yl)ethyl]acetamide]",110.518%
10,"C=CC(=O)N1CCC(C(=O)Nc2ccc(N(C)C(C)=O)cc2)CC1 [2-D08, N-[4-(N-methylacetamido)phenyl]-1-(prop-2-enoyl)piperidine-4-carboxamide]",100.957%
11,"CCC(=O)N1CCc2cc(C(=O)CCl)ccc21 [10-C22, 1-[5-(2-chloroacetyl)-2,3-dihydro-1H-indol-1-yl]propan-1-one]",125.938%
12,"CC(=O)Nc1ccc(NC(=O)N2CCSSCC2)cc1 [10-J11, N-(4-acetamidophenyl)-1,2,5-dithiazepane-5-carboxamide]",105.938%
13,"N#CC(=Cc1ccc(OC(F)F)c(Cl)c1)C(N)=O [9-L12, 3-[3-chloro-4-(difluoromethoxy)phenyl]-2-cyanoprop-2-enamide]",91.3858%
14,"CC(Cl)C(=O)N1CCN(Cc2cc(=O)n3ccsc3n2)CC1 (stereo not shown) [6-P17, 7-{[4-(2-chloropropanoyl)piperazin-1-yl]methyl}-5H-[1,3]thiazolo[3,2-a]pyrimidin-5-one]",84%
15,"Cc1ccc(NC(=O)C(C#N)=Cc2ccc(C(C)(C)C)cc2)cc1C [9-E04, 3-(4-tert-butylphenyl)-2-cyano-N-(3,4-dimethylphenyl)prop-2-enamide]",96.4794%
16,"Cc1cc(NC(=O)CCl)c([N+](=O)[O-])cc1C [4-F21, 2-chloro-N-(4,5-dimethyl-2-nitrophenyl)acetamide]",87.2797%
17,"Cl.O=C(CCl)NC1CCN(c2ccncc2)CC1 [5-P09, 2-chloro-N-[1-(pyridin-4-yl)piperidin-4-yl]acetamide hydrochloride]",100.182%
18,"C=CC(=O)NCc1ccc(C(C)(C)C)[nH]c1=O [3-P08, N-[(6-tert-butyl-2-oxo-1,2-dihydropyridin-3-yl)methyl]prop-2-enamide]",91.2495%
19,"CCC(NC(=O)CCl)c1nc(C)n[nH]1 (stereo not shown) [5-O14, 2-chloro-N-[1-(3-methyl-1H-1,2,4-triazol-5-yl)propyl]acetamide]",76.1384%
20,"CC(NC(=O)CCl)c1cc(C(F)(F)F)[nH]n1 (stereo not shown) [5-P11, 2-chloro-N-{1-[5-(trifluoromethyl)-1H-pyrazol-3-yl]ethyl}acetamide]",115.483%
21,"Cc1cc(C(=O)CCl)c(C)n1-c1ccccn1 [10-C16, 2-chloro-1-[2,5-dimethyl-1-(pyridin-2-yl)-1H-pyrrol-3-yl]ethan-1-one]",117.5%
22,"CCc1ccccc1NC(=O)CNC(=O)CCl [4-I08, 2-chloro-N-{[(2-ethylphenyl)carbamoyl]methyl}acetamide]",100.619%
23,"CCOc1cccc(N2CCN(C(=O)C(C)Cl)CC2)n1 (stereo not shown) [7-G07, 2-chloro-1-[4-(6-ethoxypyridin-2-yl)piperazin-1-yl]propan-1-one]",80.0628%

row,SMILES,% of control remaining
1,"CCCc1ccc(NC(=O)CCl)cc1 [6-I22, 2-chloro-N-(4-propylphenyl)acetamide]",77.1707%
2,"C=CC(=O)NCC1CCN(c2ccccc2)C1 (stereo not shown) [3-B17, N-[(1-phenylpyrrolidin-3-yl)methyl]prop-2-enamide]",146.626%
3,"C=CC(=O)N1CCC(C(=O)NCc2ccc(C(N)=O)cc2)CC1 [3-J08, N-[(4-carbamoylphenyl)methyl]-1-(prop-2-enoyl)piperidine-4-carboxamide]",108.663%
4,"N#CC(=Cc1ccccc1)C(=O)Nc1ccccc1-c1ccccc1 [8-A15, N-{[1,1'-biphenyl]-2-yl}-2-cyano-3-phenylprop-2-enamide]",109.876%
5,"Cc1ccc(NC(=O)C(C#N)=Cc2cccc(F)c2)cc1 [8-F11, 2-cyano-3-(3-fluorophenyl)-N-(4-methylphenyl)prop-2-enamide]",89.2946%
6,"Cc1cccc(CN(C(=O)CCl)C(C)C)c1 [6-J05, 2-chloro-N-[(3-methylphenyl)methyl]-N-(propan-2-yl)acetamide]",103.122%
7,"CC(c1ccccc1F)N1CCCC(NC(=O)CCl)C1=O (stereo not shown) [5-I10, 2-chloro-N-{1-[1-(2-fluorophenyl)ethyl]-2-oxopiperidin-3-yl}acetamide]",120.583%
8,"O=C(CCl)NS(=O)(=O)c1ccc(Cl)cc1 [4-E18, 2-chloro-N-(4-chlorobenzenesulfonyl)acetamide]",125.012%
9,"Cc1ccc(N2CCN(C(=O)C(C)Cl)CC2=O)o1 (stereo not shown) [7-A16, 4-(2-chloropropanoyl)-1-(5-methylfuran-2-yl)piperazin-2-one]",110.518%
10,"C=CCNC(=O)C(C#N)=Cc1ccc2c(c1)OCCO2 [9-L06, 2-cyano-3-(2,3-dihydro-1,4-benzodioxin-6-yl)-N-(prop-2-en-1-yl)prop-2-enamide]",115.356%
11,"COc1ccccc1NC(=O)C(C#N)=Cc1cc(C)c(C)cc1C [9-A10, 2-cyano-N-(2-methoxyphenyl)-3-(2,4,5-trimethylphenyl)prop-2-enamide]",92.2846%
12,"Cc1ccc2nc(-c3ccc(F)cc3)c(CNC(=O)C(C)Cl)n2c1 (stereo not shown) [5-D21, 2-chloro-N-{[2-(4-fluorophenyl)-6-methylimidazo[1,2-a]pyridin-3-yl]methyl}propanamide]",95.082%
13,"CC(NC(=O)C(C#N)=Cc1ccc2c(c1)OCCO2)c1ccccc1 (stereo not shown) [8-M15, 2-cyano-3-(2,3-dihydro-1,4-benzodioxin-6-yl)-N-(1-phenylethyl)prop-2-enamide]",91.6183%
14,"Cc1ccc(S(=O)(=O)N2CCSSCC2)c(F)c1 [10-L09, 5-(2-fluoro-4-methylbenzenesulfonyl)-1,2,5-dithiazepane]",114.687%
15,"O=C(CCl)NCCc1ccc(Cl)cc1 [4-O12, 2-chloro-N-[2-(4-chlorophenyl)ethyl]acetamide]",97.9514%
16,"O=C(CCl)NCC(=O)Nc1ccc(F)c(F)c1 [4-L16, 2-chloro-N-{[(3,4-difluorophenyl)carbamoyl]methyl}acetamide]",109.004%
17,"CC(Cl)C(=O)N(C)C(C)c1ccccc1N1CCCS1(=O)=O (stereo not shown) [6-D05, 2-chloro-N-{1-[2-(1,1-dioxo-1lambda6,2-thiazolidin-2-yl)phenyl]ethyl}-N-methylpropanamide]",95.2683%
18,"CC1CCCCC1NC(=O)C(C#N)=CC=Cc1ccccc1[N+](=O)[O-] (stereo not shown) [8-F12, 2-cyano-N-(2-methylcyclohexyl)-5-(2-nitrophenyl)penta-2,4-dienamide]",110.207%
19,"CC(=O)Nc1ccc(C(=O)CCl)cc1 [10-O12, N-[4-(2-chloroacetyl)phenyl]acetamide]",6.875%
20,"CC(O)CN(Cc1ccc(Cl)c(F)c1)C(=O)CCl (stereo not shown) [5-K12, 2-chloro-N-[(4-chloro-3-fluorophenyl)methyl]-N-(2-hydroxypropyl)acetamide]",102.732%
21,"COc1ccc(NC(=O)C(C#N)=Cc2c(C)n[nH]c2C)cc1 [8-I04, 2-cyano-3-(3,5-dimethyl-1H-pyrazol-4-yl)-N-(4-methoxyphenyl)prop-2-enamide]",88.9627%
22,"C=CC(=O)Nc1cnn(CCN2CCCC2=O)c1 [3-M18, N-{1-[2-(2-oxopyrrolidin-1-yl)ethyl]-1H-pyrazol-4-yl}prop-2-enamide]",98.9116%
23,"COc1ccc(-c2nn(-c3ccccc3)cc2C=C(C#N)C(N)=O)cc1 [8-L16, 2-cyano-3-[3-(4-methoxyphenyl)-1-phenyl-1H-pyrazol-4-yl]prop-2-enamide]",92.6141%

# From article PMC11995724, “Antibiotic target discovery by integrated phenotypic and activity-based profiling of electrophilic fragments” (Cell chemical biology, 2025)
